These results are taken from PubChem BioAssay AID1346428 (National Center for Advancing Translational Sciences (NCATS), 2018).

Where “and” joins values, the source holds several entries; their conditions need not be identical. Equal entries are not always repeated. The campaign covered roughly 48,000 compounds. About 1,200 (2.5%) were called active. About 2% were inconclusive and are not listed.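 Rule for the calls: active = activation of at least 60% and not above a set upper limit (about 1 call in 100 departs from these limits); inconclusive = activation of 40% to 60%, or above that upper limit; inactive = activation under 40%.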 The list shows a part of the results.

Sequence of UniProt O75388 (O75388 whole entry, looked up, the tested form may be a part): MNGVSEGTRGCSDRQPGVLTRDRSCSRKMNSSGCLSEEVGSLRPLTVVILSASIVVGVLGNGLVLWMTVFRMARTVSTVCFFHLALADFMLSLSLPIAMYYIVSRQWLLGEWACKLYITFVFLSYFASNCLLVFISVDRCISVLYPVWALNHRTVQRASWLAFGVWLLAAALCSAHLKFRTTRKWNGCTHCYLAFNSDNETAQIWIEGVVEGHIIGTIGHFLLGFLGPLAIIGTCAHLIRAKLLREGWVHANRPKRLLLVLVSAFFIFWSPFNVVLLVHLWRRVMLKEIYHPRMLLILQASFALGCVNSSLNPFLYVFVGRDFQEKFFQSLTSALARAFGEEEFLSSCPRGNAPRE

For this experiment, the target named is Probable G-protein coupled receptor 32 (Homo sapiens) (UniProt O75388). The experiment can be described thus: qHTS for Agonists of Human Resolvin D1 Receptor DRV1. The settings on record: CHO-K1 GPR32 beta-arrestin PathHunter luminescence, 90 min; at 76.9 µM; active compounds read high; zero percent set by DMSO-only wells. In outline:
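PathHunter enzyme-fragment complementation, CHO-K1 GPR32 stable line; 2,500 cells/well, overnight attach; cpd 90 min 37 °C 5% CO2; detection reagent 1 h RT; chemiluminescence. DMSO = EC0.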
Take `CCc1cccc(C)c1Nc1c(-c2cccs2)nc2nc(C)cc(C)n12`: the activation is inactive: -34.3%.
With `CCOc1cc(C(=O)NCc2nc(-c3cccc(C)c3)no2)cc(OCC)c1OCC` the figure was inactive: -14.6%; with `COC(=O)c1ccccc1NC(=O)c1cc(CN2CCOCC2)on1`, inactive: -8.73%.
With `CCN(CC)c1ccc(NC(=O)CCS(=O)(=O)c2ccc3c(c2)oc(=O)n3C)c(C)c1` the figure was inactive: -1.26%; with `Cc1ccc(CNc2ncnc3onc(C)c23)cc1`, inactive: 19.6%.
For the compound `COc1ccc(-c2cc3nc(C)c(CCC(=O)N4CCN(c5ccccc5F)CC4)c(C)n3n2)c(OC)c1`, the activation is inactive: 13.8%.
As to `CCC(=O)Nc1ccc(CC)cc1-c1nc2ccccc2n(CC(=O)Nc2ccccc2C)c1=O`, the activation was inactive: -0.424%.
`COc1ccc(-c2onc(C)c2C)cc1S(=O)(=O)Nc1cc(Cl)ccc1C`: the activation is inactive: -3.07%.
For the compound `O=C(CSc1nc2ccccc2nc1Cc1ccccc1F)Nc1cccc(C(F)(F)F)c1`, the activation was inactive: 22.9%.
With `CC(C)OCCCn1c(=O)c2ccccc2n2c(-c3cc(Cl)ccc3O)nnc12` the figure was inactive: 15.5%.
With `CCCOc1ccc(C2c3c(-c4ccccc4O)n[nH]c3C(=O)N2Cc2cccnc2)cc1` (configuration not stated) the figure was inactive: -10.4%; with `COc1cc2c(cc1OC)C(COc1ccc(F)cc1)N(C(=O)Cc1ccccc1)CC2` (configuration not stated), inactive: -28.5%.
With `CCOc1ccc(-c2cc(C(=O)NCCCOC)c3c(-c4ccc(CC)cc4)[nH]nc3n2)cc1` the figure was inactive: -23.4%.
For `COc1cc(C(=O)Nc2ccc(-c3nc4ccccc4o3)c(O)c2)cc(OC)c1OC`, the activation is inactive: -0.819%.
With `Cc1cn2c(=O)cc(COC(=O)c3ccc(NC(=O)COc4ccc(C)c(C)c4)cc3)nc2s1`, the activation is inactive: -15.1%.
On to `CCOc1ccc(CN(C(=O)c2cc(=O)c3cc(Cl)ccc3o2)C2CCS(=O)(=O)C2)cc1` (configuration not stated), for which the activation was inactive: -7.05%.
Take `CCCCOC(=O)c1c(C)oc2ccc(NS(=O)(=O)c3ccc(F)cc3C)cc12`: the activation is inactive: 16%.
Regarding `CCc1ccc(CNc2ncnc3onc(-c4ccc(Cl)cc4)c23)cc1`, the activation was inactive: -4.81%.
As to `COc1ccc(N2CCN(C(CNC(=O)c3cccc(OC)c3)c3cccnc3)CC2)cc1` (configuration not stated), the activation was inactive: 3.59%.
Take `NC(N)=NC(=O)c1nc(Cl)c(N)nc1N`: the activation is inactive: -15.8% and inactive: 6.15%.
With `COc1ccc(-c2cc(C(F)(F)F)n3nc(C(=O)Nc4sc5c(c4C(=O)OC(C)C)CCCC5)cc3n2)cc1OC` the figure was inactive: -8.72%.
With `CCN(CC)C(=O)C1CCN(c2cc(C)nc3c(-c4ccc(OC)c(OC)c4)c(C)nn23)CC1` the figure was inactive: 3.37%.
